According to publication PMC4336329 (PLoS ONE, 2015):
About 14,000 (4.5%) of roughly 310,000 compounds showed an effect of 50% or more. Effects have a minus sign here. The list shows a part of the results.

Target: human ether-à-go-go-related gene (hERG) potassium channel (human, UniProt Q12809)
Assay: primary screen, population patch clamp on CHO cells stably expressing hERG
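Further: peak tail current of the secondary pulse compared with the same well before compound.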

Chain of human ether-à-go-go-related gene (hERG) potassium channel (Q12809 whole entry, looked up): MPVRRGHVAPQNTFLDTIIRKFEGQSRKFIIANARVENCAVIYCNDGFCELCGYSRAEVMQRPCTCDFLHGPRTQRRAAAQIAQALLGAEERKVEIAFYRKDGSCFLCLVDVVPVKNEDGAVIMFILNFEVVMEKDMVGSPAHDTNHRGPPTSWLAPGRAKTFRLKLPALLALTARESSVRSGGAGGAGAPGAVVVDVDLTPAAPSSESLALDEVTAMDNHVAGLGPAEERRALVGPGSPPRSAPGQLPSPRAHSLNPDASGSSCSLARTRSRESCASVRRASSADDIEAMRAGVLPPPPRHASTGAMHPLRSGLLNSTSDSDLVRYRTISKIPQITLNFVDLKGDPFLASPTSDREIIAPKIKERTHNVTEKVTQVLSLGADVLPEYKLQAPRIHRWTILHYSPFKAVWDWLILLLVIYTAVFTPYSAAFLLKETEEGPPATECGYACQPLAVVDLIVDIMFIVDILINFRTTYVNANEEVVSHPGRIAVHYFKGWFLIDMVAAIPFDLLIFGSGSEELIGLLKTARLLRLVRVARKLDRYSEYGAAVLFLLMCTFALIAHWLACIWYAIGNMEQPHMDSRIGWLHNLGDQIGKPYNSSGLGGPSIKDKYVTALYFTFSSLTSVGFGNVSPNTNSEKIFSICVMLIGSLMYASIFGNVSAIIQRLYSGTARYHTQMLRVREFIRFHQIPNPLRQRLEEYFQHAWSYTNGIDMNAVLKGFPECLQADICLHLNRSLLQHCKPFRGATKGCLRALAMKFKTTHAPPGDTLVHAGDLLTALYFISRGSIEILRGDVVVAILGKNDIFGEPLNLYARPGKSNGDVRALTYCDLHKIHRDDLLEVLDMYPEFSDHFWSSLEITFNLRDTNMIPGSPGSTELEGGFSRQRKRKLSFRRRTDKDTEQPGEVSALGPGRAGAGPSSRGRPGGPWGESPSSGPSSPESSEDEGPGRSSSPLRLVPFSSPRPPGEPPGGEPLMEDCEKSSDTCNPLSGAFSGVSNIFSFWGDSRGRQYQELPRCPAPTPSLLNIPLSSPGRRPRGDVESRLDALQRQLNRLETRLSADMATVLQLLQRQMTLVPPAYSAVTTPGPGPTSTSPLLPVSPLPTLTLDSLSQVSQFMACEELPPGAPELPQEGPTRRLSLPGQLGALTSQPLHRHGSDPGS

| Compound | hERG current change (%, negative = inhibition) at 10uM [%] |
| --- | --- |
| O=C1NC(=O)N(Cc2ccccc2Cl)C(=O)/C1=C/c1cccs1 | 11.8 |
| CCN(CC(=O)NC(C)C)C(=O)c1ccc(S(=O)(=O)N(C)c2ccccc2OC)cc1 | -2.53 |
| Oc1ccccc1C(=S)N1CCN(c2cccc(Cl)c2)CC1 | 3.92 |
| O=C(CNS(=O)(=O)c1cccs1)N1CCc2ccccc2C1 | -14.5 |
| NC(=O)c1ccc(NC(=O)COC(=O)CC2Sc3ccccc3NC2=O)cc1 (stereo not drawn) | 4.78 |
| CC(=O)C1=C(C)OC(N)=C(C#N)C1c1cc([N+](=O)[O-])ccc1Cl (stereo not drawn) | -9.43 |
| COc1ccccc1CNC(=O)c1ccc(NC2=NC3CS(=O)(=O)CC3S2)cc1 (stereo not drawn) | 5.84 |
| COCCn1c(SCC(=O)Nc2cc(C)on2)nc2ccccc21 | 7.56 |
| O=C(NC(=O)c1cnccc1C(F)(F)F)Nc1ccccc1 | -0.241 |
| C[C@]12CCC(=O)C=C1[C@H](O)C[C@@H]1[C@@H]2[C@@H](O)C[C@@]2(C)[C@H]1CC[C@]2(O)C(=O)CO | 21 |
| C/C(=N/NS(=O)(=O)c1ccc(C)cc1)[C@H]1C[C@@H]1c1ccccc1 | -2.74 |
| O=C(NCCCN1CCCC1=O)C1CCN(S(=O)(=O)c2c(Cl)cccc2Cl)CC1 | -0.379 |
| CC1(C)C(=O)Nc2ccccc2N1C(=O)COC(=O)C1CCCCC1 | -4.27 |
| CC(c1ccco1)N(C(=O)c1cccs1)c1ccccn1 (stereo not drawn) | 5.33 |
| COCCNC(=O)c1ccc(C)c(NC(=O)C2=C(C)OCCS2)c1 | 21.1 |
| Nc1nonc1NC(=O)CSc1nc2ccccc2s1 | 11.2 |
| CC(C)NC(=S)N/N=C/c1sc(N2CCCCC2)nc1-c1cccs1 | 1.56 |
| CCCCN(C(=O)CSc1nc2ccccc2n1CC)C1CCS(=O)(=O)C1 (stereo not drawn) | 0.601 |
| COc1ccc2cc(OCC(=O)NNC(=O)Nc3ccc(OC)c(OC)c3)ccc2c1 | 17.3 |
| CCOc1cc(C(=O)OCC(=O)Nc2ccc(SC(F)F)cc2)cc(OCC)c1OCC | 4.57 |
| Cc1cc(NC(=O)CCC2CCCCC2)no1 | -6.64 |
| O=C(Nc1cccc(C(=O)N2CCOCC2)c1)c1ccccc1 | -5.44 |

| Compound | hERG current change (%, negative = inhibition) at 10uM [%] |
| --- | --- |
| Cc1cccc(OP(=O)(Nc2cccnc2)Oc2cccc(C)c2)c1 | -38.1 |
| CCc1ccc(N(CC(=O)NC2CCCCC2)C(=O)CCC(=O)Nc2ccccn2)cc1 | -7.01 |
| COc1ccccc1NC(=O)c1cccc(S(=O)(=O)N2CCN(Cc3ccccc3)CC2)c1 | -19.6 |
| CCCCNC(=O)NNC(=O)c1ccoc1C | 6.58 |
| CC1(C)CC(CC(=O)Nc2ccccn2)C(=O)O1 (stereo not drawn) | -3.51 |
| CCOc1ccc(NC(=O)CN(C)C(=O)c2cn(-c3ccc(F)cc3)nc2-c2cccc(OC)c2)cc1OCC | 0.419 |
| C#Cc1ccc([C@H]2C=C(C(=O)NCc3ccccc3)O[C@@H](OCC)[C@@H]2CCCO)cc1 | -25.4 |
| c1ccc(-c2csc3nnc(SCc4ccc5c(c4)OCCO5)n23)cc1 | -3.29 |
| COc1cc(/C=C/C(=O)OCC(=O)Nc2ccc(NC(C)=O)cc2)cc(S(=O)(=O)N2CCc3ccccc32)c1OC | 7.44 |
| COC(=O)c1ccc(CN(c2ccccc2Cl)S(C)(=O)=O)cc1 | 13.2 |
| Cc1ccc(-c2cn(-c3ccccc3)c(SCC(N)=O)n2)cc1C | -36.2 |
| CCC(=O)Oc1ccc(C(=O)Nc2cccc(C(=O)c3ccccc3)c2)cc1 | -23.8 |
| COc1ccc(Br)cc1C(=O)Nc1cccc(-c2nnc(-c3ccco3)o2)c1 | -18.8 |
| CNC(=O)C(=O)NCCCN1CCOCC1 | 7.92 |
| CCCCN1CCNC[C@H]1Cc1ccc(O)cc1 | -9.4 |
| Cc1ccc(-n2ccc(=O)c(C(=O)Nc3ccc(S(=O)(=O)Nc4onc(C)c4C)cc3)n2)cc1 | 21.1 |
| O=C(O)CCC(=O)c1ccc2c(c1)OCCO2 | 1.89 |
| O=C(CCCCn1c(=O)c2ccccc2n(CC(=O)Nc2ccccc2)c1=O)NCc1ccco1 | 7.33 |
| C=CCN1c2ccccc2[C@]23C[C@@H](C(=O)OC)N(C(=O)c4cc(C)oc4C)C2=NC(C(=O)OC)=C(C(=O)OC)[C@H]13 | -21 |
| CCOc1cc(/C=C2\CCn3c2nc2cc(Cl)ccc2c3=O)ccc1O | 30.5 |
| Cc1ccc(C(=O)NCC(=O)N2CCCC(C(F)(F)F)C2)s1 (stereo not drawn) | 5.25 |
| COc1ccc(N(CC(=O)Nc2c(C)n(C)n(-c3ccccc3)c2=O)S(=O)(=O)c2ccc(F)cc2)cc1 | -14.9 |

| Compound | hERG current change (%, negative = inhibition) at 10uM [%] |
| --- | --- |
| Cc1ccc(C#N)c(SCC(=O)Nc2nccs2)n1 | 10.6 |
| O=C(O)/C(CC(=O)c1ccc(Cl)cc1)=N/Nc1ccc([N+](=O)[O-])cc1[N+](=O)[O-] | 9 |
| COc1cc(NC(=O)c2ccccc2[N+](=O)[O-])ccc1NC(=O)c1cc2ccccc2o1 | 13 |
| COc1ccc(/C=N/N2C(C)CCCC2C)cc1OC (stereo not drawn) | 11 |
| CCOC(=O)C1C(c2ccc([N+](=O)[O-])cc2)C2C(=O)NN=C2CC1(C)O (stereo not drawn) | 17.9 |
| COc1ccccc1N1CCN(C2CC(=O)N(c3ccc(F)cc3)C2=O)CC1 (stereo not drawn) | 0.313 |
| Cc1cc(C)cc(OC(C)C(=O)NCCCn2ccnc2)c1 (stereo not drawn) | 1.12 |
| O=[N+]([O-])c1ccc(/C=N/NC(=S)Nc2ccccc2C(F)(F)F)o1 | -3.07 |
| CCCCNC(=S)NNC(=O)c1csc(C)c1C | 8.49 |
| COc1ccccc1N(CC(O)Cn1c(C)nc2ccccc21)S(=O)(=O)c1ccccc1 (stereo not drawn) | -5.88 |
| O=C(Nc1ccc(C(F)(F)F)cc1)C1CCN(c2cnccn2)CC1 | -12.5 |
| Cc1ccc(C)c(N2CCN(C(=O)c3ccc(N4CCOCC4)c([N+](=O)[O-])c3)CC2)c1 | -21.2 |
| O=C(CN(Cc1ccccc1)C(=O)CNS(=O)(=O)c1ccccc1)NCc1ccco1 | -0.255 |
| O=C(NCCCl)NNc1c(Cl)cc(Cl)cc1Cl | 10.3 |
| O=C(CS(=O)(=O)Nc1ccc(F)cc1Cl)Nc1ccc(F)cc1Cl | 4.64 |
| Nc1c(C(=O)NCc2ccco2)c2nc3ccccc3nc2n1Cc1ccccc1 | 7.69 |
| N#Cc1ccc(C(CC(=O)O)N2Cc3ccccc3C2=O)cc1 (stereo not drawn) | 0.913 |
| COCCNC(=O)c1ccc(NC(=O)C2(c3ccccc3)CCCC2)cc1 | -8.48 |
| CCN(CC(=O)Nc1cc(Cl)ccc1C)C(=O)CCOc1ccc(C)cc1 | -8.25 |
| COC(=O)c1ccc(N2CCOCC2)c(F)c1 | 9.09 |
| COCc1cc(C)nc(OCC(=O)N/N=C/c2ccccc2)c1C#N | -42.3 |
| CC1(NC(=O)C2CCCCC2)CCS(=O)(=O)C1 (stereo not drawn) | 21.6 |

| Compound | hERG current change (%, negative = inhibition) at 10uM [%] |
| --- | --- |
| COc1ccccc1CC(=O)N(CCC#N)CCC#N | 5.52 |
| O=C(CSc1ccc(-c2ccco2)nn1)N1CCCCC1 | 12.9 |
| Clc1ccc(Cc2nnc(-c3cccs3)o2)cc1 | -17.9 |
| CC1CCCCN1CC(=O)NC(=O)NCc1ccccc1 (stereo not drawn) | 16.8 |
| COc1ccc2cc(S(=O)(=O)Nc3ccccn3)ccc2c1 | 9.87 |
| COc1ccc(Nc2nnc(Cc3ccccc3)c(=O)[nH]2)c(OC)c1 | 3.85 |
| Cc1cc(C(=O)Nc2cccc(C)c2C)c2ccccc2n1 | 10.2 |
| Cc1cccc(NC(=O)c2n[nH]c([N+](=O)[O-])c2Br)c1C | 2.18 |
| O=C(c1ccco1)N1CCc2[nH]nc(-c3ccccc3)c2C1 | -1.08 |
| C=CCC1S/C(=N/N=C/c2cccs2)NC1=O (stereo not drawn) | 15.3 |
| COCCCn1c(SCC(=O)NC2CCCCC2)nnc1-c1ccco1 | -3.26 |
| Cc1ccc(C(=O)/C=C/c2c[nH]c3ccccc23)cc1 | -3.22 |
| O=C(NCc1ccc(Cl)cc1)c1cccc2c1C(=O)N(CC1CCCO1)C2 (stereo not drawn) | -70.8 |
| O=C(Nc1ccccc1)C1=C[C@H](c2ccc3c(c2)OCO3)C[C@H](OCc2ccc(CO)cc2)O1 | -4.12 |
| O=C(C1CCN(S(=O)(=O)c2cccc3nsnc23)CC1)N1CCCCC1 | 2.03 |
| CC(C)(C)c1ccc(C(=O)NNC(=O)Cc2ccccc2)cc1 | 18.2 |
| CS(=O)(=O)Nc1ccc(C(=O)N2CCCC2)cc1 | -7.75 |
| N/N=C/C(=N\Nc1ccc(Cl)cc1)C(=O)c1ccncc1 | 22.3 |
| COc1ccc(Cl)cc1NC(=S)NCc1ccc(S(N)(=O)=O)cc1 | 2 |
| Cc1ccccc1OCCC(=O)Nc1ccc(F)c(Cl)c1 | -9.09 |
| Cc1cc2nnc(SCC(=O)NCc3cccs3)n2c2ccccc12 | -22.3 |
